Measurements: paper PMC4336329 (PLoS ONE, 2015)
In all, about 310,000 compounds went through this assay and about 14,000 (4.5%) showed an effect of 50% or more. Effects have a minus sign here. The list shows a part of the results.

The compounds below were run against human ether-à-go-go-related gene (hERG) potassium channel (human, UniProt Q12809) (assay: primary screen, population patch clamp on CHO cells stably expressing hERG).
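Also: peak tail current of the secondary pulse compared with the same well before compound.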

Sequence of human ether-à-go-go-related gene (hERG) potassium channel (Q12809 whole entry, looked up): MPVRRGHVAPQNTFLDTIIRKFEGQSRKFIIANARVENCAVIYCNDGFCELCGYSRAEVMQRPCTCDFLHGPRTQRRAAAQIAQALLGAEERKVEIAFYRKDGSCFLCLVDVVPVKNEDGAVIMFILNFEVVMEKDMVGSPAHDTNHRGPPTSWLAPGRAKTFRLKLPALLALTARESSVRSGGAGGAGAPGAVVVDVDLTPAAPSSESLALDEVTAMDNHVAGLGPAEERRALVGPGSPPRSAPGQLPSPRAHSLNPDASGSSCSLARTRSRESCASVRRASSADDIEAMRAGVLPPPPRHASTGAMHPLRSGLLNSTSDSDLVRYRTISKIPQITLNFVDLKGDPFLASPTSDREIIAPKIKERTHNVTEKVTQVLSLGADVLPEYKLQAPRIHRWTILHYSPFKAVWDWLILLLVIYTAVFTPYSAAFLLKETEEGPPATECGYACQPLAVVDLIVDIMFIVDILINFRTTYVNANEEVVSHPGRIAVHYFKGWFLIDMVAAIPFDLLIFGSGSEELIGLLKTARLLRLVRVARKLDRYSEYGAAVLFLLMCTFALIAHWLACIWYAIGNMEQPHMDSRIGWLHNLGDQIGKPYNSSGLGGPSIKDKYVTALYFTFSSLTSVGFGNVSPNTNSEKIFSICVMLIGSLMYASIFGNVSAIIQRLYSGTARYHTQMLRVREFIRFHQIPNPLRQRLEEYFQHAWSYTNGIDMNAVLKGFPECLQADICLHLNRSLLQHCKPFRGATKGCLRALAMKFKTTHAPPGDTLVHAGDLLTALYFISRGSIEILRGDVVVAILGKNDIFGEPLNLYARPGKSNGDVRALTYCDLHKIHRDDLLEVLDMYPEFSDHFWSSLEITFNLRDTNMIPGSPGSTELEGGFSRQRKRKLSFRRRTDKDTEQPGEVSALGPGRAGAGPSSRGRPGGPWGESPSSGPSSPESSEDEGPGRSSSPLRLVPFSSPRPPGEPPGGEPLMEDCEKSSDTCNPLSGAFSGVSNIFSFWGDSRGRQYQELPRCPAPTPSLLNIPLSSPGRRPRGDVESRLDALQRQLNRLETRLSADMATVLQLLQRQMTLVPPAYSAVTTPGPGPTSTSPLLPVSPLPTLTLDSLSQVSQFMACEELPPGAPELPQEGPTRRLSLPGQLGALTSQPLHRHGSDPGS

Structure (SMILES) | hERG current change (%, negative = inhibition) at 10uM [%]
COc1cccc(Nc2ncc(C#N)c(N)n2)c1 | -4.54
Cc1ccc(CNC(=O)CN2C(=O)COc3ccc(S(=O)(=O)N4CCC(C)CC4)cc32)o1 | -8.24
COc1ccccc1CCC(=O)OCC(=O)N1CCN(S(=O)(=O)c2ccc(C)cc2C)CC1 | -8.16
COC(=O)CCC(=O)OC1(C)C(=O)C=C2C=C(C3CC3)N(c3cccc(C#N)c3)C=C2C1=O (stereo not shown) | 3.34
Cc1nn(Cc2ccccc2Cl)c(C)c1NC(=O)c1cc(-c2ccc(F)cc2)on1 | -3.46
CC12CCC(=O)N1C(C(=O)Nc1ccccc1F)CS2 (stereo not shown) | -5.81
CN(C)C1=NCCN1CC1CCCCCC1 | -3.28
Nc1ccc2c(c1)Nc1ccccc1CC2 | 14.7
O=C(NCCC1CCCCN1S(=O)(=O)c1ccc(Cl)cc1)C(=O)NCc1ccncc1 (stereo not shown) | -39.6
C=C(C)Cn1c(=O)n(CC2CS2)c2ccccc21 (stereo not shown) | -1.02
Cc1ccc(C)c(NC(=O)CSc2nnc(CNC(=O)c3ccco3)o2)c1 | 0.875
CC(=O)N/C(=C\c1ccccc1)C(=O)OCC(=O)NC1CCCC1 | -2.42
Cc1nc2ccc(C(=O)O)cc2[nH]1 | 15.6
O=C(N/N=C/c1ccc([N+](=O)[O-])cc1)c1c[nH]c2ccccc12 | 19.1
CN1CCN(c2ccc(Cl)cc2NC(=O)CCN2C(=O)c3ccccc3C2=O)CC1 | -7.06
COc1ccc(CCN2C(=O)C(Oc3ccccc3C)C2c2ccc3c(c2)OCO3)cc1OC (stereo not shown) | 6.21
CCN(c1ccccc1)S(=O)(=O)c1ccc(OCC(=O)Nc2cc(C)on2)cc1 | -7.31
Cc1ccc(-n2c(=O)c3sccc3n(CC(=O)NC3CCCCC3)c2=O)cc1 | 9.86
Cc1noc(/C=C/N(C)C)c1S(=O)(=O)N1CCCC(C(=O)NC2CCCCC2C)C1 (stereo not shown) | -25.5
COC(=O)c1ccc(C(=O)OC)c(NC(=O)CN2CCN(c3ccc(OC)cc3)CC2)c1 | 11.5
CCc1nc2ccc(N3CCN(C)CC3)cc2nc1CC | 19.7
CC(=O)c1ccc(-c2nnc(CCC(=O)N(C)Cc3c(C)nc4ccccn34)o2)s1 | -29.6

Structure (SMILES) | hERG current change (%, negative = inhibition) at 10uM [%]
O=c1[nH]c(SCc2ccccc2)nnc1-c1ccccc1 | 8.58
Cn1c(=O)c2c(ncn2CC(=O)Nc2nccs2)n(C)c1=O | 11.9
COc1ccc(-c2nc3cnccn3c2NC(C)(C)CC(C)(C)C)cc1O | -2.63
COC(=O)c1ccc(OCC(O)CNCC(c2ccc(OC)cc2)N(C)C)c(OC)c1 (stereo not shown) | -21.4
O=C(NC(=S)Nc1cccc([N+](=O)[O-])c1)C1CCCCC1 | 13.9
COc1ccc(/C=C2/C(=O)N(Cc3ccco3)C(=O)N(C(C)C)C2=O)cc1 | 7.27
CCN(CC(=O)Nc1cc(Cl)ccc1Cl)C(=O)c1ccc(-n2cccn2)cc1 | -34.2
O=c1cc(-c2ccccc2)nc2nc(SCc3ccccc3)[nH]n12 | 3.62
CC1CC(CCN)(c2ccccc2)C(C)CN1C.Cl (stereo not shown) | 11.4
Cc1ccc(Nc2c(-c3ccc(N(C)C)cc3)nc3ncccn23)cc1 | 10.6
CC(C)OCCCNC(=O)c1ccncc1 | -0.61
COc1ccccc1-c1cc(C(=O)N/N=C/c2sccc2C)c2ccccc2n1 | -7.09
CCN1CN(Cc2ccccc2)CNC1=S | 13.8
C=CCNc1nc(-c2c(C)nc3sccn23)cs1 | -10.1
CSc1ccccc1NC(=O)CSc1n[nH]c(C)c1[N+](=O)[O-] | 4.74
CCn1c(C)nc2cc(C(=O)N/N=C/c3ccccc3)ccc21 | -17.5
Cc1ccc(C(=O)NCCn2cc(SCC(=O)Nc3cc(C)on3)c3ccccc32)cc1 | 10.6
CC12CCCCN1CCCc1c2[nH]c2ccccc12.Cl (stereo not shown) | -29.4
COc1ccccc1-c1sc2ccccc2c1-c1ccc(Br)nc1 | 17.3
CC1CCCCC1NC(=O)c1ccc(CNc2c(N3CCCC3)c(=O)c2=O)cc1 (stereo not shown) | 14.3
N#CC(C(=O)NC1CCCCC1)=C1CCCCCC1 | 0.321
